According to patent US20160009824A1 (Merck KGaA, published 2016):

Target: T1, Human CD47 (coated on ELISA plates) (human, UniProt Q08722 in part, limits assumed)
T1 construct: construct not described; also called immobilized CD47
Assay: ELISA on plate-coated human CD47, detection with HRP goat anti-human IgG Fcγ, A450

B1: Fc-(G4S)4-anti-CD47(VHCH1) (Fc fusion)
chain: [human IgG1 Fc with changes not shown]GGGGSGGGGSGGGGSGGGGSG[about 200 residues not shown]
light: DIVMTQSPATLSVTPGDRVSLSCRASQTISDYLHWYQQKSHESPRLLIKFASQSISGIPSRFSGSGSGSDFTLSINSVEPEDVGVYYCQNGHGFPRTFGGGTKLEIKRTVAAPSVFIFPPSDEQLKSGTASVVCLLNNFYPREAKVQWKVDNALQSGNSQESVTEQDSKDSTYSLSSTLTLSKADYEKHKVYACEVTHQGLSSPVTKSFNRGEC
notes: Fc-Fab precursor, 'full tetrameric molecule'
EC50 (read off the curve): ~1 nM
